Measured values taken from the GPR68 mutational scans of Howard et al. (2025).
Scores with a large standard error are left out. The source holds two more conditions with little spread; they are left out. In variant names, del marks residues removed and ins residues inserted between the two positions. For part of these data: The concentration of ogerin is not given here.

B1: GPR68, Q15743 (parent)
chain: MGNITADNSSMSCTIDHTIHQTLAPVVYVTVLVVGFPANCLSLYFGYLQIKARNELGVYLCNLTVADLFYICSLPFWLQYVLQHDNWSHGDLSCQVCGILLYENIYISVGFLCCISVDRYLAVAHPFRFHQFRTLKAAVGVSVVIWAKELLTSIYFLMHEEVIEDENQHRVCFEHYPIQAWQRAINYYRFLVGFLFPICLLLASYQGILRAVRRSHGTQKSRKDQIQRLVLSTVVIFLACFLPYHVLLLVRSVWEASCDFAKGVFNAYHFSLLLTSFNCVADPVLYCFVSETTHRDLARLRGACLAFLTCSRTGRAREAYPLGAPEASGKSGAQGEEPELLTKLHPAFQTPNSPGSGGFPTGRLA

Experiments:
[1] = variants of: B1; assay: cAMP reporter score (Enrich2 score, wild type = 0); higher = more signal; HEK293T, FACS bins
[2] = variants of: B1; assay: surface expression score (Enrich2 score, wild type = 0); higher = more signal; HEK293T, FACS bins

Variant	cAMP reporter score ([1]; pH 5.5)	cAMP reporter score ([1]; pH 6)	cAMP reporter score ([1]; pH 6, modulator: ogerin)	cAMP reporter score ([1]; pH 6.5, modulator: ogerin)	surface expression score [2]
Q206_G207insGS	-1.88	-1.19	-1.18	-0.996	
I208_L209del	-0.586	-0.815		-1.5	-2.44
Q206_G207insG	-1.11	-1.35	-2.07	-1.34	-2.46
S204_Y205insGSG	-0.536	-0.247		0.107	-2.25
Y205_Q206insGSG	-1.38	-0.857	-2	-0.442	-1.92
L209_R210insGS	-1.57	-0.772	-1.81	-0.734	-0.03
V212_R213insGS	-0.618	-1.97	-1.52	-1.36	-0.509
R210_V212del	-1.69		-1.04	-1.24	-1
V212_R213del	-2.17	-0.591	-1.49	-1.51	1.01
R210M	0.52	-0.59	0.075	-0.615	-0.585
R210K	0.363	-0.974	0.593	1.07	-0.702
R210F	1.04	-0.197	0.679	-0.3	0.723
R210H	0.436	-1.31	0.145	-0.512	-0.345
R210Q	-0.879	-0.773	-0.872	-0.586	-1.07
R210I	0.214	-0.432	0.502	0.178	-0.193
R210L	0.694		0.522		0.013
R210C	0.258		-0.064	-0.271	0.503
R210P	-1.12	-1.04	-2.18	-1.09	
R210D	-0.432	-0.809	-0.577	-0.489	-0.951
R210G	0.023	-0.044	0.015	-0.514	-0.4
R210N	0.745	0.677	0.491	-0.441	0.131
R210W	0.809	-0.265	1.02	0.224	0.248
R210A	0.006	0.542	0.666		0.085
R210V	0.498	0.683	0.915	0.212	-0.697
R210E	-0.031	-0.162	0.196	-0.487	-1.65
R210T	0.339		0.308	-0.749	0.067

Variant	cAMP reporter score ([1]; pH 5.5)	cAMP reporter score ([1]; pH 6)	cAMP reporter score ([1]; pH 6, modulator: ogerin)	cAMP reporter score ([1]; pH 6.5, modulator: ogerin)	surface expression score [2]
A211_V212insGSG	-1.56	-1.12	-1.19	-0.966	-0.145
R214F	1.01	0.815			0.928
R214A	2.3		2.81	1.94	
R214C	-0.673		-0.163	-0.173	-0.462
R214E	0.213	0.368	0.507	-0.103	-0.228
R214D	0.148	-0.652	0.22	0.248	
R214H	-0.472	-0.374	-0.506	-0.598	-0.356
S204_Y205del	-1.44	-2.01	-2.29	-0.976	-2.16
S204del	-2.18	-1.48	-1.43	-0.871	-1.98
I208del	-1.24	-1.83	-1.43	-1.87	-0.442
R213del	-1.68	-1.09	-1.58	-1.33	0.006
A211del	-1.49	-0.07	-1.15	-0.937	0.22
R213G	0.664	0.343	1.12	-0.12	-0.186
R213Y	0.959	-0.025	1	0.186	-0.225
R213C	1.36	1.79	0.475	0.565	0.247
R213M	0.244	1.33	0.169	0.458	-0.189
R213N	-0.126	-0.132	-0.405	-0.378	-1.18
R213T	-0.087	1.17	0.036	0.282	-1.24
R213K	0.889		1.39	0.659	1.64
R213W	1.53	0.869	1.55	1.49	0.072
R213A	0.541	-0.005	0.809	-0.035	-0.12
R213I	0.527	-0.775	0.508	0.025	-1.25
R213E	-0.149	-0.667	-0.129	0.218	-0.21
R213S	0.173	1.91	0.217	-0.817	0.325
R213F	-0.475	-0.807	0.151	-1	-1.84
R213V	-0.456		-0.766	0.316	-0.445

Variant	cAMP reporter score ([1]; pH 5.5)	cAMP reporter score ([1]; pH 6)	cAMP reporter score ([1]; pH 6, modulator: ogerin)	cAMP reporter score ([1]; pH 6.5, modulator: ogerin)	surface expression score [2]
R213L	-0.271	0.035	-0.051	-0.747	-1.56
R213D	-0.403	-1.24	-0.458	-0.642	-0.505
R213H	-0.406	-0.085	-0.574	-0.327	-0.572
R213P	-0.446	-0.979	-0.766	-0.247	1.2
Y205C	-0.594	-0.398	-0.709	-0.014	-2.22
Y205M	-0.223	-1.53	-0.811	-0.875	-0.899
Y205R	-1.57	-1.28	-1.7	-1.15	-1.5
Y205E	0.243	-0.811	-0.12	-0.928	-1.3
Y205A	0.461		-0.1	1.65	-0.32
Y205K	-0.546	-1.06	-1.47	-0.835	-1.84
Y205N	1.87	4.45	0.864	2.97	-1.51
Y205T	0.37		0.475	0.135	-0.658
Y205W	-1.34	-0.928	-1.88	-0.957	0.042
Y205D	-1.07	-0.201	-1.05	-0.584	-2.57
Y205L	-1.53	-1.34	-1.07	-0.573	-0.676
Y205G	0.298		1.25		
Y205Q	-0.277	1.51	-0.4	-0.04	-0.99
Y205F	-1.37	-0.882	-2.41	-1.08	-0.851
Y205V	-0.943	-0.235	-1.1	-0.426	-1.95
Y205I	-0.337	-1.98	-2.51		-1.15
A211_V212insGS	-1.73	-1.95	-1.49	-0.859	0.278
S204_Y205insG	-1.5	-1.55	-0.952	-0.802	-1.89
L209_R210insG	-0.48	-0.972	-0.745	-0.994	-1.83
Y205_G207del	-1.29	-1.53	-1.46	-1.12	
S204N	0.847	-0.559		-0.847	-1.33
S204Q	-1.3	0.405	-0.602	-1.69	-2.81

Variant	cAMP reporter score ([1]; pH 5.5)	cAMP reporter score ([1]; pH 6)	cAMP reporter score ([1]; pH 6, modulator: ogerin)	cAMP reporter score ([1]; pH 6.5, modulator: ogerin)	surface expression score [2]
S204M	0.853	2.01	0.975	1.5	-0.729
S204P	-0.413	-0.644	-0.067	-1.25	-2.06
S204W	-1.78	0.244	-0.588		-2.61
S204Y	-1.22	-0.947	-1.46	-1.31	-2.38
S204T	1.03	-0.06	0.74	-0.985	-0.293
S204V	0.552	-0.957	-0.318	-0.649	0.601
S204R	-0.673	-1.77	-0.995	-0.771	-1.98
Y205_Q206insG	-1.54	-1.6	-1.94	-1.45	-2.69
R210del	-1.16	-0.981	-1.08	-1.12	-0.779
Y205_Q206del	-2.22	-1.2		0.037	-2.29
L209H	-1.25	-0.728	-1.07	-1.46	0.003
L209G	-0.182	-1.07	-0.477		
L209Y	0.644	-0.46	0.05	0.395	0.1
L209D	-0.714	-1.13	-1.22	-0.107	0.751
L209N	-0.022	-0.97	-0.14	-0.375	1.11
L209R	-0.159	-1.54	-1.12	-0.42	1.65
L209M	-0.018	0.48	0.006	0.458	0.042
L209F	-0.26	-1.64	-0.324	-0.251	-1.07
L209A	0.274	-0.871	-0.721	-0.946	0.8
L209P	-1.33	-1.72	-2.02	-1.84	-1.57
L209W	0.986		0.847	0.759	0.265
L209V	-0.105	-0.724	-0.676	-1.31	0.315
L209K	-1.39	-0.634	-1.22	-1.23	0.965
L209I	0.474	1.41		0.882	1.58
L209S	-0.944	-1.58	-0.784	-1.66	0.07
L209C	0.228		-0.675	-1.12	1.72

Variant	cAMP reporter score ([1]; pH 5.5)	cAMP reporter score ([1]; pH 6)	cAMP reporter score ([1]; pH 6, modulator: ogerin)	cAMP reporter score ([1]; pH 6.5, modulator: ogerin)	surface expression score [2]
L209Q	-1.52	-1.23	-1.28	-0.833	-0.321
L209T	0.53		0.499	-0.038	1.78
V212R	-0.641	-1.25	-0.825		0.912
V212F	-1.94	-1.18	-1.54	-1.36	0.644
V212M	-0.525	-1.82	-1.6	-0.776	0.608
V212E	-0.416	-0.678	-1.62	-0.695	1
V212P	-1.21	-1.98	-1.75	-1.23	0.027
V212A	-0.956	-0.718	-1.28	-1.23	0.822
V212C	-1.6	-1.23	-1.48	-1.19	0.549
V212G	-1.92	-1.46	-2.73	-2.33	0.228
V212K	-1.42	-1.75	-1.73	-1.01	-0.577
V212N	-1.74		-1.26	-1.69	0.04
V212H	-0.975	-0.467	-1.43	-0.98	0.471
V212Q	-1.54	-0.971	-1.86	-0.799	2
V212D	-1.17	-1.23	-1.48	-1.42	0.374
V212T	-0.64	-0.591	-1.03	-0.766	1.04
V212L	-1.24	-1.18	-1.07	-1.34	1.04
V212I	-0.485	-0.411	-0.497	-0.52	-0.414
V212S	-1.44	-0.448	-1.56	-1.14	0.128
V212W	-1.33	-1.52	-1.13	-1.42	-0.795
V212Y	-1.78	-1.49	-1.69	-1.68	0.097
R210_A211insG	-2.04	-0.576	-3.24	-0.746	-0.398
